The list shows a part of the results. The list includes weakly bound sequences.

This assay concerns the target MaxL homodimer (UniProt P61244). In words: universal protein-binding microarray (PBM). As to conditions: PBS-based mixture, 10 nM His-tagged protein dimer, 2% milk, 200 ng/uL BSA, 50 ng/uL salmon testes DNA, 0.02% TX-100; detection with Alexa 488 anti-His …; high values mean tight binding; most listed sequences are background and not binding sites; double strand, one strand shown.
Chain of UniProt P61244 (P61244 whole entry): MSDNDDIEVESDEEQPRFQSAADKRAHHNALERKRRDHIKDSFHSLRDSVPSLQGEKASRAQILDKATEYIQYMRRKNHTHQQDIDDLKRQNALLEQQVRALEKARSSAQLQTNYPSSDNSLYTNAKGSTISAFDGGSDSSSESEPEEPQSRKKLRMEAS
Consider CCTAAAAA, for which the binding signal (normalized occupancy) came out at 0.0718.

For GAATGCTA, the binding signal (normalized occupancy) was 0.0783.

Turning to AGGGTGGC, the binding signal (normalized occupancy) was found to be 0.0806.

Take AATCGACC: the binding signal (normalized occupancy) came to 0.0723.

Regarding CGTCTTAC, the binding signal (normalized occupancy) is 0.0732.

For the sequence AAACGAGC, the binding signal (normalized occupancy) worked out at 0.0743.

Consider ACCGGGAC, for which the binding signal (normalized occupancy) was 0.0721.

For CAGTTATC, the binding signal (normalized occupancy) stood at 0.0738.

As to TCTCCGAA, the binding signal (normalized occupancy) came out at 0.0709.

For AACTGACT, the binding signal (normalized occupancy) was 0.0714.

In the case of AGACCGAA, the binding signal (normalized occupancy) stood at 0.0708.

Regarding GAGTTAAA, the binding signal (normalized occupancy) is 0.0706.

For the sequence AGTGAGCG, the binding signal (normalized occupancy) is 0.0671.

Turning to CCCGTCGA, the binding signal (normalized occupancy) turned out to be 0.0728.

With ATGATACA, the binding signal (normalized occupancy) was found to be 0.0874.

Take AGTTCGTA: the binding signal (normalized occupancy) worked out at 0.0747.

For the sequence ACAGGCCA, the binding signal (normalized occupancy) was 0.0688.

AGAATTAA: the binding signal (normalized occupancy) was found to be 0.0769.

Consider ATGTTCTA, for which the binding signal (normalized occupancy) worked out at 0.0805.

Regarding CTTTTGTC, the binding signal (normalized occupancy) turned out to be 0.0713.

On to AAAAGCGT, for which the binding signal (normalized occupancy) was found to be 0.0737.

Take GAACTGGA: the binding signal (normalized occupancy) came out at 0.0713.

Regarding ACTGGACA, the binding signal (normalized occupancy) amounted to 0.0733.

On to GAACAGTA, for which the binding signal (normalized occupancy) was 0.0733.

Take CATTGTGA: the binding signal (normalized occupancy) was 0.0867.

In the case of GAGGGGGA, the binding signal (normalized occupancy) worked out at 0.0752.

Turning to CGTCTACA, the binding signal (normalized occupancy) amounted to 0.0721.

As to GTTGGGCA, the binding signal (normalized occupancy) was 0.0775.

Regarding CGATTTGA, the binding signal (normalized occupancy) came to 0.0682.

With AACGTAAT, the binding signal (normalized occupancy) was 0.0744.

As to AGTACAAT, the binding signal (normalized occupancy) was determined as 0.0763.

AAACAAAA: the binding signal (normalized occupancy) turned out to be 0.0795.

With TAGGCGCA, the binding signal (normalized occupancy) came out at 0.074.

Take GCCGTACC: the binding signal (normalized occupancy) stood at 0.0685.

Turning to ACGGTCTC, the binding signal (normalized occupancy) is 0.075.

Regarding TCTCAACA, the binding signal (normalized occupancy) was determined as 0.0757.

Take TAAGATGA: the binding signal (normalized occupancy) was found to be 0.0854.

For CGATATAA, the binding signal (normalized occupancy) was determined as 0.0803.

Turning to GCTGCAGA, the binding signal (normalized occupancy) was determined as 0.0714.

With ATCATATG, the binding signal (normalized occupancy) came to 0.0972.

With AGCTCCAT, the binding signal (normalized occupancy) amounted to 0.0804.

For the sequence ACGACAGG, the binding signal (normalized occupancy) is 0.0762.

In the case of GACTTGAA, the binding signal (normalized occupancy) was found to be 0.072.

With AGCCAGGG, the binding signal (normalized occupancy) stood at 0.0688.

Take AGATAGAT: the binding signal (normalized occupancy) stood at 0.075.

In the case of CAATTACA, the binding signal (normalized occupancy) stood at 0.0821.

As to AACCGTGA, the binding signal (normalized occupancy) is 0.0752.

Regarding ACGTGAAG, the binding signal (normalized occupancy) is 0.1.

ACGCGGGA: the binding signal (normalized occupancy) was determined as 0.0824.

For AGTGATAG, the binding signal (normalized occupancy) worked out at 0.077.

On to GACCCCCC, for which the binding signal (normalized occupancy) was 0.0797.

Take CGGCATAC: the binding signal (normalized occupancy) came out at 0.0757.

As for GAGAGAAA, the binding signal (normalized occupancy) stood at 0.0682.

Regarding ATAAGGCC, the binding signal (normalized occupancy) came out at 0.0798.

AGTGTTCA: the binding signal (normalized occupancy) was 0.0774.

In the case of CGGTCGGC, the binding signal (normalized occupancy) is 0.0666.

For AACACGGT, the binding signal (normalized occupancy) was determined as 0.0777.

As to ATATTCAT, the binding signal (normalized occupancy) was 0.0918.

Regarding GAATCAAA, the binding signal (normalized occupancy) amounted to 0.0719.

On to CACGTCGC, for which the binding signal (normalized occupancy) was 0.0825.

Regarding GTCTTACA, the binding signal (normalized occupancy) was 0.0841.

In the case of GCGGTCGA, the binding signal (normalized occupancy) amounted to 0.0706.

TAGCCAGA: the binding signal (normalized occupancy) was 0.0697.

In the case of GCAGCGAA, the binding signal (normalized occupancy) was 0.0696.

In the case of GCCCGAGC, the binding signal (normalized occupancy) was 0.0631.

Take GCGGAAGC: the binding signal (normalized occupancy) stood at 0.067.

Consider CTCCATAC, for which the binding signal (normalized occupancy) is 0.0816.

For the sequence CATCCCTA, the binding signal (normalized occupancy) was 0.0814.

Take TGCATACA: the binding signal (normalized occupancy) is 0.085.

Consider CTAGGTGC, for which the binding signal (normalized occupancy) is 0.0748.

For the sequence CGATTGTA, the binding signal (normalized occupancy) stood at 0.0764.

Turning to AACCATGC, the binding signal (normalized occupancy) turned out to be 0.106.

In the case of AACTAACG, the binding signal (normalized occupancy) is 0.0728.

Regarding AACATATA, the binding signal (normalized occupancy) turned out to be 0.0841.

In the case of ACCAGAGC, the binding signal (normalized occupancy) is 0.0672.

As to AATTCGAG, the binding signal (normalized occupancy) is 0.0732.

For CCTACGAG, the binding signal (normalized occupancy) is 0.0758.

In the case of CTTCTGAA, the binding signal (normalized occupancy) worked out at 0.0708.

Regarding TGATCCCA, the binding signal (normalized occupancy) was found to be 0.0817.

As for ACCTAGAA, the binding signal (normalized occupancy) was found to be 0.0705.

On to ATCGCTCA, for which the binding signal (normalized occupancy) is 0.0718.

Take CGCGCGTA: the binding signal (normalized occupancy) worked out at 0.0797.

Consider ACCATGGT, for which the binding signal (normalized occupancy) stood at 0.0862.

Regarding AACCTCTT, the binding signal (normalized occupancy) turned out to be 0.0692.

On to CTAGAATA, for which the binding signal (normalized occupancy) is 0.0796.

With AGATCAGA, the binding signal (normalized occupancy) came to 0.0731.

With ATCGGTCC, the binding signal (normalized occupancy) was 0.0713.

With AAAGTTGC, the binding signal (normalized occupancy) amounted to 0.0762.

For the sequence ACGTAATC, the binding signal (normalized occupancy) worked out at 0.086.

In the case of TGCTACCA, the binding signal (normalized occupancy) came out at 0.0792.

Turning to CGATGTGA, the binding signal (normalized occupancy) was 0.0833.

With AACTTTAG, the binding signal (normalized occupancy) stood at 0.0721.

Consider CAATTCAC, for which the binding signal (normalized occupancy) is 0.0739.

As for TCGAGCGA, the binding signal (normalized occupancy) is 0.0735.

Regarding CGCCCCAC, the binding signal (normalized occupancy) was found to be 0.0804.

As for AGATGTAC, the binding signal (normalized occupancy) was 0.0766.

For the sequence GAGTCCCA, the binding signal (normalized occupancy) worked out at 0.0709.

AGGGTTGA: the binding signal (normalized occupancy) turned out to be 0.0746.

As for CCGACCTA, the binding signal (normalized occupancy) came out at 0.0702.

For the sequence TATGGAAA, the binding signal (normalized occupancy) worked out at 0.0788.

For the sequence GTGGGGGA, the binding signal (normalized occupancy) came out at 0.0922.

On to GCCTATAC, for which the binding signal (normalized occupancy) is 0.0748.

As to CATTCATC, the binding signal (normalized occupancy) came to 0.0811.

Consider GCGGGCGA, for which the binding signal (normalized occupancy) was 0.0715.

For ACCGTTCC, the binding signal (normalized occupancy) was determined as 0.0693.

Take CTGCATGC: the binding signal (normalized occupancy) was determined as 0.1.

On to ATATACAG, for which the binding signal (normalized occupancy) was found to be 0.0826.

Regarding GTCCCTTA, the binding signal (normalized occupancy) was found to be 0.0792.

In the case of CCAGGACC, the binding signal (normalized occupancy) is 0.0711.

The record behind these values is PMC4242493.
